The labels stand for the following.
B1: Caulobacter ParB omega fusion; a variant is named by its letters at X, in order, B8GW30 (parent)
chain: MESVVVGEPGMSEGRRGLGRGLSALLGEVDAAPAQAPGEQLGGSREAPIEILQRNPDQPRRTFREEDLEDLSNSIREKGVLQPILVRPSPDTAGEYQIVAGERAWRAAQRAGLKTVPIMVRELDDLAVLEIGIIENVQRADLNVLEEALSYKVLMEKFERTQENIAQTIGKSXSHVANXMRLLXLPDEVQSYLVSGELTAXHARAIAAAADPVALAKQIIEGGLSVRETEALARKAPNLSAGKSKGGRPPRVKDTDTQALESDLSSVLGLDVSIDHRGSTGTLTITYATLEQLDDLCNRLTRGI

The record followed here is a collection of fitness landscapes (doi:10.1016/j.celrep.2020.107928).

The full ranking holds about 81,000 sequences; the median of “one-hybrid fitness for binding NBS DNA” is about -0.1, and the highest 2% start at about 0.36. The list shows a part of the results.

Variants of B1 are the subject of the assay. As to the kind of experiment: one-hybrid fitness for binding NBS DNA (the Noc-binding site; scaled: cognate 1, non-cognate 0); higher = stronger binding. As to conditions: with NBS DNA site. In outline:
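Values were rescaled so that cognate is 1 and non-cognate is 0. Each is a fitness, the log change in a variant's read ratio to wild type from Illumina reads of plasmids before and after selection, with three replicate libraries pooled and variants under 10 reads dropped. Selection of the Caulobacter ParB libraries, four specificity codons randomised, used E. coli USO with a HIS3 reporter, site 19 bp from the promoter, on M9-minus-histidine with 0.1 mM IPTG and 5 mM 3-AT for 48 hours at 37°C.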
In the case of WELC, the “one-hybrid fitness for binding NBS DNA” value was at most 0.2. For FRIW the value was at most 0.2; for NRVC, at most 0.2. Take ALAT: the “one-hybrid fitness for binding NBS DNA” value was at most 0.2. As for QQWY, the figure is at most 0.2; as for SWYQ, at most 0.2; as for SVNC, at most 0.2. On to EGSN, for which the “one-hybrid fitness for binding NBS DNA” value is at most 0.2. For NNYM the value was at most 0.2. As for GVWR, the figure is at most 0.2; as for GPSY, at most 0.2; as for SCKG, at most 0.2. As for GHPV, the figure is at most 0.2; as for QISL, at most 0.2; as for ILDG, at most 0.2. QGSL: the “one-hybrid fitness for binding NBS DNA” value was at most 0.2. For NNDW the value was at most 0.2. As for EYQL, the figure is at most 0.2. For RNCM the value was at most 0.2; for RYKN, 0.218; for QNTE, at most 0.2. As to ISVL, the “one-hybrid fitness for binding NBS DNA” value is at most 0.2. As for PKTY, the figure is at most 0.2; as for TQHR, at most 0.2; as for CTVR, at most 0.2. For GRAL the value was at most 0.2; for PWFN, at most 0.2. As for NEHL, the figure is at most 0.2. Take CHYV: the “one-hybrid fitness for binding NBS DNA” value was at most 0.2. As for HVDW, the figure is at most 0.2; as for CYSG, at most 0.2; as for DAPD, at most 0.2.

Regarding TMVT, the “one-hybrid fitness for binding NBS DNA” value is at most 0.2. Consider HCAC, for which the “one-hybrid fitness for binding NBS DNA” value was at most 0.2.

In the case of QQIR, the “one-hybrid fitness for binding NBS DNA” value was 0.435. On to DDPL, for which the “one-hybrid fitness for binding NBS DNA” value is at most 0.2. As for NDGK, the figure is at most 0.2.

Turning to TYVG, the “one-hybrid fitness for binding NBS DNA” value was at most 0.2. For YQVL the value was at most 0.2; for DMNC, at most 0.2; for HLTH, at most 0.2. As for HPQH, the figure is at most 0.2; as for QGNM, at most 0.2; as for IQLF, at most 0.2. For QYVT, the “one-hybrid fitness for binding NBS DNA” value stood at 0.363. Consider LNHV, for which the “one-hybrid fitness for binding NBS DNA” value is at most 0.2. In the case of DLDS, the “one-hybrid fitness for binding NBS DNA” value is at most 0.2. As for QPFL, the figure is at most 0.2; as for ASNG, at most 0.2. As for NSHF, the figure is at most 0.2; as for IAPC, at most 0.2; as for REGY, at most 0.2.

As for QHNE, the “one-hybrid fitness for binding NBS DNA” value is at most 0.2. As for YELS, the figure is at most 0.2; as for TNPI, at most 0.2. For YHFG the value was at most 0.2. As for RWEF, the figure is at most 0.2; as for DESG, at most 0.2.

Take HLSK: the “one-hybrid fitness for binding NBS DNA” value was at most 0.2. For VGYT the value was at most 0.2; for ERSG, at most 0.2. As for TVEE, the figure is at most 0.2. For the variant QQLH, the “one-hybrid fitness for binding NBS DNA” value was found to be 0.22. Turning to ASLW, the “one-hybrid fitness for binding NBS DNA” value was at most 0.2. As for LTST, the figure is at most 0.2; as for DVNC, at most 0.2; as for RFKA, at most 0.2. As for NPMG, the figure is at most 0.2; as for ITTM, at most 0.2; as for KYLA, at most 0.2.

For KFMT, the “one-hybrid fitness for binding NBS DNA” value was at most 0.2. Turning to IPHA, the “one-hybrid fitness for binding NBS DNA” value was at most 0.2. For FMPE the value was at most 0.2; for DYWM, at most 0.2; for QSST, 0.424. On to RMSI, for which the “one-hybrid fitness for binding NBS DNA” value is at most 0.2. As for EGAF, the figure is at most 0.2.
